The chains are these.
B1: GPR68, Q15743 (parent)
chain: MGNITADNSSMSCTIDHTIHQTLAPVVYVTVLVVGFPANCLSLYFGYLQIKARNELGVYLCNLTVADLFYICSLPFWLQYVLQHDNWSHGDLSCQVCGILLYENIYISVGFLCCISVDRYLAVAHPFRFHQFRTLKAAVGVSVVIWAKELLTSIYFLMHEEVIEDENQHRVCFEHYPIQAWQRAINYYRFLVGFLFPICLLLASYQGILRAVRRSHGTQKSRKDQIQRLVLSTVVIFLACFLPYHVLLLVRSVWEASCDFAKGVFNAYHFSLLLTSFNCVADPVLYCFVSETTHRDLARLRGACLAFLTCSRTGRAREAYPLGAPEASGKSGAQGEEPELLTKLHPAFQTPNSPGSGGFPTGRLA

Scores with a large standard error are left out. Two further conditions of the source, in which the scores hardly spread, are not listed. In variant names, del marks residues removed and ins residues inserted between the two positions. For some assays here: The data file names ogerin without a concentration.

Data set [1] covers variants of B1. The data set can be described thus: cAMP reporter score (Enrich2 score, wild type = 0); higher = more signal; HEK293T, FACS bins.
In data set [2] the parent is B1. The data set can be described thus: surface expression score (Enrich2 score, wild type = 0); higher = more signal; HEK293T, FACS bins.

As to N8L, the cAMP reporter score in data set [1] (pH 5.5) amounted to 0.817; in data set [1] (pH 6) it was 0.106; in data set [1] (pH 6, modulator: ogerin), 0.949; in data set [1] (pH 6.5, modulator: ogerin) it was 0.786.
With N8G, the cAMP reporter score is -1.03 in data set [1] (pH 5.5); -0.882 in data set [1] (pH 6); -0.505 in data set [1] (pH 6, modulator: ogerin); -0.497 in data set [1] (pH 6.5, modulator: ogerin). For the same variant, in data set [2], the surface expression score was -1.61.
In the case of N8K, the cAMP reporter score in data set [1] (pH 5.5) is 0.489; in data set [1] (pH 6, modulator: ogerin) it was 0.157; in data set [1] (pH 6.5, modulator: ogerin) it was 0.619.
On to N8C, for which the cAMP reporter score in data set [1] (pH 5.5) was -1.16; in data set [1] (pH 6), -0.567; in data set [1] (pH 6, modulator: ogerin), -0.689; in data set [1] (pH 6.5, modulator: ogerin), 0.702. For the same variant, the surface expression score in data set [2] was -1.72.
For N8M, in that order: -0.209, -0.914, -0.794, -0.736 and -1.71.
N8D: the cAMP reporter score in data set [1] (pH 5.5) was 0.087; in data set [1] (pH 6) it was -0.765; in data set [1] (pH 6.5, modulator: ogerin) it was 0.485. For the same variant, the surface expression score in data set [2] was -0.518.
For N8Q, the cAMP reporter score in data set [1] (pH 5.5) was -0.261; in data set [1] (pH 6), -0.33; in data set [1] (pH 6, modulator: ogerin), -0.623; in data set [1] (pH 6.5, modulator: ogerin) it was -0.662. Further, in data set [2], the surface expression score was -0.897.
As to N8A, the cAMP reporter score in data set [1] (pH 5.5) is 0.464; in data set [1] (pH 6) it was 1.32; in data set [1] (pH 6, modulator: ogerin), 0.391; in data set [1] (pH 6.5, modulator: ogerin) it was -0.78.
In the case of N8R, the cAMP reporter score was -0.438 in data set [1] (pH 5.5); -0.722 in data set [1] (pH 6); -0.769 in data set [1] (pH 6, modulator: ogerin); -0.235 in data set [1] (pH 6.5, modulator: ogerin). The surface expression score in data set [2] is -1.64.
Take N8F: the cAMP reporter score in data set [1] (pH 5.5) was 0.797; in data set [1] (pH 6) it was -0.575; in data set [1] (pH 6, modulator: ogerin), 0.492; in data set [1] (pH 6.5, modulator: ogerin), -0.87. In addition, in data set [2], the surface expression score was -1.28.
For N8I the same measures were 0.336, -0.345, -1.08, -0.206 and -0.873.
For N8P the same measures were 0.773, -0.565, 0.301, 0.272 and 0.183.
For I4S the same measures were 0.877, 0.942, 1.55, 1.35 and 1.07.
With I4K, the cAMP reporter score in data set [1] (pH 5.5) came to 0.539; in data set [1] (pH 6) it was 0.271; in data set [1] (pH 6, modulator: ogerin), 0.129; in data set [1] (pH 6.5, modulator: ogerin), 0.014. For the same variant, the surface expression score in data set [2] amounted to 0.512.
I4R: the cAMP reporter score was 0.448 in data set [1] (pH 5.5); -1.08 in data set [1] (pH 6); 0.594 in data set [1] (pH 6, modulator: ogerin). In addition, the surface expression score in data set [2] came out at 0.397.
In the case of I4C, the cAMP reporter score is -0.111 in data set [1] (pH 5.5); -0.509 in data set [1] (pH 6); 0.101 in data set [1] (pH 6, modulator: ogerin); -0.963 in data set [1] (pH 6.5, modulator: ogerin). Also, the surface expression score in data set [2] was -0.253.
For I4P the same measures were -0.619, -0.377, -0.584, -0.993 and 0.209.
I4Y: the cAMP reporter score is 0.478 in data set [1] (pH 5.5); 0.294 in data set [1] (pH 6); 0.589 in data set [1] (pH 6, modulator: ogerin); -0.178 in data set [1] (pH 6.5, modulator: ogerin). Moreover, in data set [2], the surface expression score came to 0.471.
For I4G the same measures were 0.672, 0.483, 0.739, 0.448 and 0.803.
For the variant I4M, the cAMP reporter score was 1.22 in data set [1] (pH 5.5); 1.32 in data set [1] (pH 6); 0.421 in data set [1] (pH 6, modulator: ogerin); 1 in data set [1] (pH 6.5, modulator: ogerin). For the same variant, the surface expression score in data set [2] is -0.555.
For I4W, in that order: -1.07, -0.263, -1.06, -0.547 and -1.01.
In the case of I4N, the cAMP reporter score in data set [1] (pH 5.5) is 0.976; in data set [1] (pH 6), 0.667; in data set [1] (pH 6, modulator: ogerin) it was 1.07; in data set [1] (pH 6.5, modulator: ogerin), 0.764. In data set [2], the surface expression score worked out at 0.608.
For I4V, in that order: -0.326, 0.349, -0.147, 0.105 and 0.465.
For I4F the same measures were -0.251, -0.403, -0.182, 0.127 and 0.011.
For the variant I4E, the cAMP reporter score in data set [1] (pH 5.5) stood at 0.231; in data set [1] (pH 6) it was 0.487; in data set [1] (pH 6, modulator: ogerin), 0.169; in data set [1] (pH 6.5, modulator: ogerin), 0.804. Also, the surface expression score in data set [2] came out at 0.232.
As for I4Q, the cAMP reporter score in data set [1] (pH 5.5) was 0.27; in data set [1] (pH 6), -0.532; in data set [1] (pH 6, modulator: ogerin), -0.061; in data set [1] (pH 6.5, modulator: ogerin) it was 0.757. Further, the surface expression score in data set [2] is 0.379.
With I4D, the cAMP reporter score worked out at 1.17 in data set [1] (pH 5.5); 1.82 in data set [1] (pH 6); 0.755 in data set [1] (pH 6, modulator: ogerin); 0.733 in data set [1] (pH 6.5, modulator: ogerin). Moreover, the surface expression score in data set [2] came to 1.47.
Consider I4H, for which the cAMP reporter score in data set [1] (pH 5.5) is 0.164; in data set [1] (pH 6) it was 0.549; in data set [1] (pH 6, modulator: ogerin), 0.279; in data set [1] (pH 6.5, modulator: ogerin), -0.059. The surface expression score in data set [2] was -0.467.
For I4L the same measures were 0.304, 0.291, 0.49, 0.788 and 0.772.
For I4A the same measures were -0.598, 0.311, -0.903, -1.08 and -0.164.
For I4T, in that order: -0.208, -0.066, 0.027, 0.133 and -0.157.
